Experimental data taken from paper PMC4207660, “Identification and Characterization of Hundreds of Potent and Selective Inhibitors of Trypanosoma brucei Growth from a Kinase-Targeted Library Screening Campaign” (PLoS Neglected Tropical Diseases, 2014).
≈ marks a conversion by molar mass, not a printed value. Like-named read-outs stand apart in the source and are kept apart here.

Assays:
[1] = test system: T. brucei brucei parasites (Lister 427 strain); test: Dose response growth inhibition assay (resazurin, 72 h); format: cell-based; settings: Trypanosoma brucei; T. b. brucei growth inhibition; read-out: Tbb pEC50 (converted)
Description: Greiner sterile black clear bottom 384-well assay plates were pre-dispensing with 200 nL of compound in each well, from master plates at 1 mM (100% DMSO) containing selection from the GSK compound collection. Controls of 0% response (control 1, 200 nL of 100%DMSO) and 100% response (control 2, 200 nL of 1 mM pentamidine) were included in each assay plate in columns 6 and 18, respectively. Plates containing 200 nL of 100% DMSO were included randomly in the assay, to assess quality through all process. […] After this period, 10 µL of 200 µM resazurin solution in prewarmed HMI-9 were added to each well, and plates were allowed to incubate 2 hours more prior fluorescence reading in a Wallac EnVision Multilabel Plate Reader (Perkin-Elmer). Raw fluorescent data from the Envision plate reader were uploaded into GSK HTS database (ActivityBase). Activity of each well was normalized as a percentage of inhibition per-plate basis using the following equation: [drawing 1]
For dose-response experiments, serial compound dilutions of selected hits from the primary campaign were plotted against compound concentration. Dose response master plates were prepared by 3-fold dilutions (starting with 10 mM DMSO stock solutions), providing 11 concentrations. From these master plates, 200 nL per well was stamped in final assay plates, including the same controls describe in the primary single shot assay. Compounds were dispensed as serial dilution curve format, with 11 points at 3-fold dilution and 40 µM as starting top concentration (n = 2). Growth inhibition assay was performed as described in previous assay.
A 4-parameter equation describing a sigmoidal dose-response curve was then fitted with an adjustable baseline using ActivityBase XE Runner software. Fitting of dose-response curves and EC50 determination were normalized as percentage of inhibition based on controls. The curve-fit model was based on a 4-parameter equation: [drawing 2]
Trypanosome cell culture. […]

ChromlogD assay = test: ChromlogD assay
Description: The Chromatographic Hydrophobicity Index (CHI)[22] values were measured using reversed phase HPLC column (Luna C18 (2), Phenomenex, UK) with a fast acetonitrile gradient at starting mobile phase of pH = 7.4. CHI values are derived directly from the gradient retention times by using a calibration line obtained for standard compounds. The CHI value approximates to the volume % organic concentration when the compound elutes. […] The average error of the assay is ±3 CHI unit or ±0.25 ChromlogD.

[2] = CLND kinetic solubility assay; format: physicochemical; settings: phosphate buffered saline, pH 7.4, aqueous buffer, kinetic from dmso stock; Measured; read-out: Aq Sol
Description: 5 µL of 10 mM DMSO stock solution was diluted to 100 µL with pH 7.4 phosphate buffered saline, equilibrated for 1 hour at room temperature, filtered through Millipore MultiscreenHTS-PCF filter plates (MSSL BPC). The filtrate was quantified by suitably calibrated flow injection Chemi-Luminescent Nitrogen Detection.

[3] = biological target: T1, Human Serum Albumin (HSA) (Homo sapiens, UniProt P02768); test: Protein binding assay (HPLC stationary phase), HSA; format: in vitro ADME; settings: Measured
T1 construct: purchased Chiral Technologies, France
Description: Chemically bonded Human Serum Albumin (HSA) and Alpha-1-acidglycoprotein HPLC stationary phases (Chiral Technologies, France) were used for measuring compounds' binding to plasma proteins, applying linear gradient elution up to 30% iso-propanol. The run time was 6 min, including the re-equilibration of the stationary phases with the 50 mM pH7.4 ammonium acetate buffer. The obtained gradient retention times were standardised using a calibration set of mixtures as described in the references. The average standard error of the assay depends on the binding strength and kinetics of the compounds.

Cytochrome P450 (CYP450) = Cytochrome P450 (CYP450) (Homo sapiens, UniProt P08684); test: Cytochrome P450 inhibition profile; format: in vitro ADME; settings: Measured
Description: The P450 inhibition profile of the inhibitors was determined as previously described.

PFI (ChromlogD assay) | solubility kinetic at 1 h [2] [µM] | HSA % binding [3] [%] | IC50 (Cytochrome P450 (CYP450); CYP3A4, VG substrate, read-out: CYP3A4VG pXC50 (converted)) [µM] | IC50 (Cytochrome P450 (CYP450); CYP3A4, VR substrate, read-out: CYP3A4VR pXC50 (converted)) [µM] | SMILES | EC50 [1] [µM]
6.34 | 235 (≈ 76.7 µg/mL) |  |  |  | COc1cc(/C=N/Nc2ncnc3c2cnn3C(C)C)ccc1O [NEU-0001125] | 1
6.95 |  |  |  |  | FC(F)(F)CNc1nc(Nc2ccsc2)nc2[nH]cnc12 [NEU-0001106] | 
 | 202 (≈ 73.8 µg/mL) | 93.59 | 10 | > 50.1 | Cc1cc([C@H](C)Oc2ccccc2)c2nc(N3CCOCC3)cc(=O)n2c1 [NEU-0001128] | 0.501
3.78 | 81 (≈ 32.4 µg/mL) |  |  |  | NS(=O)(=O)c1ccc(Nc2ncc3cccc(OC4CCNCC4)c3n2)cc1 [NEU-0001122] | 0.1
4.53 | ≥ 460 | 92.96 |  |  | Nc1nc(Nc2cccc(S(N)(=O)=O)c2)nc2c1cnn2C1CCC1 [NEU-0001107] | 
